# Measured values published in the supplement of paper PMC8007513.
# Structures can show the parent of a compound that is named as a salt. ± gives the standard error. Screen size: about 1,300 compounds; about 130 (10%) showed an effect of 50% or more. The list shows a part of the results, in another mix than the full data.
# Test system: Trichoderma virens ATCC 9645
# Assay: growth yield (OD600) with compound + IPBC relative to untreated control; higher = less growth inhibition
# Details: compound concentration: 100 uM, IPBC concentration: 200 ng/ml
# How it was run: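 For each 96-well plate, 100 μl aliquots were prepared with Trichoderma virens ATCC 9645 spores suspended at 15,000 spores ml^−1 in potato dextrose broth. The spores had been harvested from potato dextrose agar plates after 7 days. Library compounds were present at 100 μM final, some wells also receiving a biocide at 200 ng ml^−1, and plates were grown at 30 °C with OD600 read on a BioTek EL800 at 40 h and 72 h. Reported growth, relative to the control lacking both agents, is the mean of duplicate screens.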
SMILES,growth yield (40 h) [%],growth yield (72 h) [%]
COc1ccc2[nH]c([S+]([O-])Cc3ncc(C)c(OC)c3C)nc2n1 (stereo not given) [Tenatoprazole] + CCCCNC(=O)OCC#CI [3-iodo-2-propynyl butylcarbamate (IPBC)],99.91 ± 0.48,104 ± 0.42
CN(C)CCOC(c1ccccc1)c1ccccc1 [Diphenhydramine hydrochloride] + CCCCNC(=O)OCC#CI [3-iodo-2-propynyl butylcarbamate (IPBC)],87.2 ± 2.1,94 ± 2.1
C[C@]12CC[C@@H]3c4ccc(O)cc4CC[C@H]3[C@@H]1CC[C@@H]2O [Estradiol-17 beta] + CCCCNC(=O)OCC#CI [3-iodo-2-propynyl butylcarbamate (IPBC)],70.68 ± 0.16,76.98 ± 1.4e-14
"CC[C@@]1(O)C(=O)OCc2c1cc1n(c2=O)Cc2cc3ccccc3nc2-1 [Camptothecine (S,+)] + CCCCNC(=O)OCC#CI [3-iodo-2-propynyl butylcarbamate (IPBC)]",69.3 ± 1.6,81.2 ± 1.7
CC(=O)OC1CN2CCC1CC2 (stereo not given) [Aceclidine Hydrochloride] + CCCCNC(=O)OCC#CI [3-iodo-2-propynyl butylcarbamate (IPBC)],80.85 ± 0.79,86.84 ± 0.21
CC1=C(/C=C/C(C)=C/C=C/C(C)=C/C(=O)O)C(C)(C)CCC1 [Retinoic acid] + CCCCNC(=O)OCC#CI [3-iodo-2-propynyl butylcarbamate (IPBC)],99.1 ± 7.6,104 ± 4.2
NC(=O)c1cc[n+](CC2=C(C(=O)[O-])N3C(=O)[C@@H](NC(=O)[C@@H](c4ccccc4)S(=O)(=O)O)[C@H]3SC2)cc1 [Cefsulodin sodium salt] + CCCCNC(=O)OCC#CI [3-iodo-2-propynyl butylcarbamate (IPBC)],90.06 ± 0.79,95.12 ± 0.52
CC(=O)Oc1ccccc1C(=O)O [Acetylsalicylic acid] + CCCCNC(=O)OCC#CI [3-iodo-2-propynyl butylcarbamate (IPBC)],107 ± 4.9,104 ± 5.5
N=C(N)NS(=O)(=O)c1ccc(N)cc1 [Sulfaguanidine] + CCCCNC(=O)OCC#CI [3-iodo-2-propynyl butylcarbamate (IPBC)],89.6 ± 2.5,92.4 ± 2.6
COc1cc2nc(N(C)CCCNC(=O)C3CCCO3)nc(N)c2cc1OC (stereo not given) [Alfuzosin hydrochloride] + CCCCNC(=O)OCC#CI [3-iodo-2-propynyl butylcarbamate (IPBC)],89.9 ± 4.8,93.8 ± 5.2
C[N+](C)(C)CCCCCCCCCC[N+](C)(C)C [Decamethonium bromide] + CCCCNC(=O)OCC#CI [3-iodo-2-propynyl butylcarbamate (IPBC)],105 ± 6.7,101 ± 5.6
C#C[C@]1(OC(C)=O)CC[C@H]2[C@@H]3CCC4=CC(=NO)CC[C@@H]4[C@H]3CC[C@@]21CC (mixture of isomers) [Norgestimate] + CCCCNC(=O)OCC#CI [3-iodo-2-propynyl butylcarbamate (IPBC)],113 ± 5.9,115 ± 2.8
C[N+]1(C)[C@@H]2CC[C@H]1C[C@@H](OC(=O)C(CO)c1ccccc1)C2 (stereo not given in full) [Methylatropine nitrate] + CCCCNC(=O)OCC#CI [3-iodo-2-propynyl butylcarbamate (IPBC)],94.8 ± 4.6,95 ± 4
CC(=O)O[C@]1(C(C)=O)CC[C@H]2[C@@H]3C=C(Cl)C4=CC(=O)[C@@H]5C[C@@H]5[C@]4(C)[C@H]3CC[C@@]21C [Cyproterone acetate] + CCCCNC(=O)OCC#CI [3-iodo-2-propynyl butylcarbamate (IPBC)],98.8 ± 10,102 ± 6.8
Clc1ccc(CO/N=C(\Cn2ccnc2)c2ccc(Cl)cc2Cl)c(Cl)c1 [Oxiconazole Nitrate] + CCCCNC(=O)OCC#CI [3-iodo-2-propynyl butylcarbamate (IPBC)],3.49 ± 0.32,2.1 ± 0.21
CNC(=O)c1c(I)c(C(=O)NCC(=O)Nc2c(I)c(C(=O)O)c(I)c(C(=O)NCCO)c2I)c(I)c(N(C)C(C)=O)c1I [Ioxaglic acid] + CCCCNC(=O)OCC#CI [3-iodo-2-propynyl butylcarbamate (IPBC)],89.4 ± 5.9,92.6 ± 1.8
CCCCNc1cc(C(=O)O)cc(S(N)(=O)=O)c1Oc1ccccc1 [Bumetanide] + CCCCNC(=O)OCC#CI [3-iodo-2-propynyl butylcarbamate (IPBC)],82.6 ± 0.32,96.07 ± 0.63
CC(=O)Oc1ccccc1C(=O)Oc1ccccc1C(=O)O [Acetylsalicylsalicylic acid] + CCCCNC(=O)OCC#CI [3-iodo-2-propynyl butylcarbamate (IPBC)],85 ± 1.8,89.7 ± 2.2
CC(C)n1c(/C=C/C(O)CC(O)CC(=O)O)c(-c2ccc(F)cc2)c2ccccc21 (stereo not given) [Fluvastatin sodium salt] + CCCCNC(=O)OCC#CI [3-iodo-2-propynyl butylcarbamate (IPBC)],13.8 ± 0.48,33.9 ± 0.52
NC(=O)OCC(COC(N)=O)c1ccccc1 [Felbamate] + CCCCNC(=O)OCC#CI [3-iodo-2-propynyl butylcarbamate (IPBC)],103 ± 3.6,97.6 ± 3.9
Cc1ccnc(NS(=O)(=O)c2ccc(N)cc2)n1 [Sulfamerazine] + CCCCNC(=O)OCC#CI [3-iodo-2-propynyl butylcarbamate (IPBC)],88.2 ± 6.2,90.9 ± 4.7
N=C(N)NCc1cccc(I)c1 [Iobenguane sulfate] + CCCCNC(=O)OCC#CI [3-iodo-2-propynyl butylcarbamate (IPBC)],89,96.3 ± 1.1
Nc1ccc(S(=O)(=O)Nc2cnc3ccccc3n2)cc1 [Sulfaquinoxaline sodium salt] + CCCCNC(=O)OCC#CI [3-iodo-2-propynyl butylcarbamate (IPBC)],105 ± 2.5,106.8 ± 0.63
CNC[C@H](O)[C@@H](O)[C@H](O)[C@H](O)CO [Meglumine] + CCCCNC(=O)OCC#CI [3-iodo-2-propynyl butylcarbamate (IPBC)],88.6 ± 3.2,92.1 ± 1.1
NCCCC(O)(P(=O)(O)O)P(=O)(O)O [Alendronate sodium] + CCCCNC(=O)OCC#CI [3-iodo-2-propynyl butylcarbamate (IPBC)],89.9 ± 1.3,93.34 ± 0.42
